Assay results: PubChem BioAssay AID360 (National Center for Advancing Translational Sciences (NCATS), 2006)
Screen size: about 48,000 compounds; about 550 (1.1%) were called active. Inconclusive results (about 4%) are left out. No stated cut-off is given here; in the data, active means potency below about 15 µM; inconclusive means mostly about 16 µM to 33 µM; inactive means weaker than that. Some of the results follow.

Target: Lysosomal acid glucosylceramidase (Homo sapiens) (UniProt P04062)
Experiment: Glucocerebrosidase;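 further: the screen sought inhibitors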
Conditions: purified enzyme, resorufin glucoside fluorescence (screen aimed at inhibitors), 20 min
Outline: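 Wild-type enzyme at 0.2 nM final in 50mM citric acid/KH2PO4, 10mM sodium taurocholate, 0.01% tween-20, pH 5.9, with resorufin beta-D-glucopyranoside at 30 uM final. Compounds titrated, 20 min at RT, red fluorescence read; AC50 from titration.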
Potency means the concentration at half of the fitted maximal effect.

UniProt P04062, sequence (P04062 whole entry, looked up): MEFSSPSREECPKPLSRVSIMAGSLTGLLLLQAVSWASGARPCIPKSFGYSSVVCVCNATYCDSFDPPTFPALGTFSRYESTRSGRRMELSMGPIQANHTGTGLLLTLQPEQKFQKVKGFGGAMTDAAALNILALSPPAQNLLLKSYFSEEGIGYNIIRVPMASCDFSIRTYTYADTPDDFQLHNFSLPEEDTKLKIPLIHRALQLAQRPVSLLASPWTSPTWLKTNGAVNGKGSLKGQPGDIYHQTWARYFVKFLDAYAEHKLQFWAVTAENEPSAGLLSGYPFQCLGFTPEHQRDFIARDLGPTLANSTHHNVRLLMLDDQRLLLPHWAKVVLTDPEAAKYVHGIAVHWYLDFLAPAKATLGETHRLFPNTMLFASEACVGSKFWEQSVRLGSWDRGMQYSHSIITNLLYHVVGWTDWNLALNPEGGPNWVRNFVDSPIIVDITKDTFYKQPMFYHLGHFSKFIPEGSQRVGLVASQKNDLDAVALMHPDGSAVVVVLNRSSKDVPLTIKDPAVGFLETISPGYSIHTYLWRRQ

Potency, inactive:
COc1ccc(N2CCN(CC(=O)Nc3cc4c(cc3C(C)=O)OCO4)CC2)cc1 > 76.9 µM, Cc1nnc(SCCOC(N)=O)n1C > 76.9 µM, COC(=O)Nc1sc2c(c1C(=O)N1CCOCC1)CCC(C)C2 (stereo unspecified) > 76.9 µM, Cc1ccc(-c2nnc(N3CCN(S(C)(=O)=O)CC3)c3ccccc23)cc1 > 76.9 µM, O=C(CSc1nc(-c2ccccc2)cs1)NCc1ccco1 > 76.9 µM, Cn1c(=O)c2c(nc(N3CCCCCC3)n2Cc2cccc3ccccc23)n(C)c1=O > 76.9 µM, O=C(NCc1cccs1)C1CCCN(c2ncccn2)C1 (stereo unspecified) > 76.9 µM, CCN(CC)CCOC(=O)c1cccc(Br)c1 > 76.9 µM, COc1ccc(-c2cn3c(C)c(C(=O)Nc4cc(NC(C)=O)ccc4OC)sc3n2)cc1 > 76.9 µM, COc1ccccc1-c1nc(S(=O)(=O)c2ccc(Cl)cc2)c(N(C)C)o1 > 76.9 µM, CCC(c1nnnn1Cc1ccco1)N(Cc1ccccc1OC)Cc1cc2cc(C)ccc2[nH]c1=O (stereo unspecified) > 76.9 µM, NC(=O)C1CCN(C(=O)C23CC4CC(CC(C4)C2)C3)CC1 > 76.9 µM, CN=C1SC(C(=O)O)CC(=O)N1C (stereo unspecified) > 76.9 µM, CCC(=NCc1ccccc1)C1=C(O)C(C(=O)OC)C(C)(C)CC1=O (stereo unspecified) > 76.9 µM, Cc1noc(C)c1S(=O)(=O)NCCN1CCN(c2ccccc2)CC1 > 76.9 µM, O=C(CCN1CCOCC1)Nc1ccc2c(c1)N(C(=O)CN1CCOCC1)c1ccccc1CC2 > 76.9 µM, COC(=O)c1ccc(C(=O)OC)c(NC(=O)c2ocnc2C)c1 > 76.9 µM, Cc1cccc2cc(CN(Cc3ccco3)S(=O)(=O)c3ccc4c(c3)OCCO4)c(=O)[nH]c12 > 76.9 µM, COc1ccc2c(c1OC)C(=O)OC2Nn1cncn1 (stereo unspecified) > 76.9 µM, Cc1ccc2nc3c(cc(C#N)c(=O)n3CC3CCCO3)c(=O)n2c1 (stereo unspecified) > 76.9 µM, CCOC(=O)N1CCN(C(=O)C2CC(c3cc(OC)ccc3OC)=NO2)CC1 (stereo unspecified) > 76.9 µM, CSc1ccc(C(C(C(=O)c2cccs2)N2CCOCC2)N2CCOCC2)cc1 (stereo unspecified) > 76.9 µM, CCOC(=O)CC(=O)CSc1ncnc2c1cnn2-c1ccccc1 > 76.9 µM, O=S(=O)(NCc1ccco1)N1CCOCC1 > 76.9 µM, CCOc1cccc(C(=O)N(Cc2ccc(F)cc2)C2CCS(=O)(=O)C2)c1 (stereo unspecified) > 76.9 µM, COc1ccc(NC(=O)Cn2c(C)cc(=O)c3cccc(OC)c32)cc1 > 76.9 µM, COC(=O)Cc1c(C)c2c(OCc3nn[nH]n3)cc(C)cc2oc1=O > 76.9 µM, COC(=O)c1ccc(C(C(=O)NCc2ccccc2)N(Cc2ccco2)C(=O)c2cnccn2)cc1 (stereo unspecified) > 76.9 µM, COC(=O)CSc1nc2c(c(-c3ccco3)c1C#N)CCCC2 > 76.9 µM, O=C1CC(c2ccc3c(c2)OCO3)Sc2nc3ccccc3n21 (stereo unspecified) > 76.9 µM, O=S(=O)(c1ccccc1)N1CCN(Cc2cccc(Cl)c2)CC1 > 76.9 µM, CC1(C)CC(NC(=O)CC2CCCCC2)CC(C)(C)N1, CCCn1nnnc1SCC(=O)Nc1nnc(CC)s1 > 76.9 µM, COc1ccc(OC)c(-c2csc3nnc(SCC(=O)Nc4ccc(NC(C)=O)cc4)n23)c1 > 76.9 µM, CCc1[nH]nc2c1C(c1ccncc1)C(C#N)=C(N)O2 (stereo unspecified) > 76.9 µM, Cc1cccnc1NC(=O)Nc1cccc(C(F)(F)F)c1 > 76.9 µM, CCc1nc2oc3cc(OC)ccc3c(=O)c2c(=O)n1Cc1ccco1 > 76.9 µM, CC1CC(N(C(=O)C2CC2)c2ccccc2)c2ccccc2N1C(=O)C1CC1 (stereo unspecified) > 76.9 µM, NC(=O)COc1ccc2c3c(c(=O)oc2c1)CCCCC3 > 76.9 µM, O=S(=O)(NCc1ccc(Cl)cc1)c1cnc[nH]1 > 76.9 µM, O=C(NCc1ccccn1)c1c(O)c2cccc3c2n(c1=O)CC3 > 76.9 µM, Nc1ccc2c(c1)-c1ccccc1S(=O)(=O)N2 > 76.9 µM, O=C(CCc1nc2ccccc2[nH]c1=O)OCc1ccc(S(=O)(=O)N2CCOCC2)cc1 > 76.9 µM, Cc1ccc(NC(=O)CN(C)S(=O)(=O)c2cccs2)cc1F, Cc1c(C(=O)N2CCc3ccccc32)oc2c1C(=O)CC(C)(C)C2 > 76.9 µM, Cc1nn(CC(=O)Nc2ccc(C(=O)N(C)C)cc2)c(=O)c2ccccc12 > 76.9 µM, COC(=O)c1ccc(-c2n[nH]c(=O)c3ccccc23)cc1 > 76.9 µM, O=C(NCCc1c[nH]c2ccccc12)c1cccnc1 > 76.9 µM, COc1ccc(C2C(C(=O)NCCN(C)C)c3ccccc3C(=O)N2C)cc1OC (stereo unspecified) > 76.9 µM, O=C(NCC(c1cccnc1)N1CCOCC1)C1CCCCC1 (stereo unspecified) > 76.9 µM, CCCCn1c(SCN2C(=O)c3ccccc3C2=O)nc2cc(S(N)(=O)=O)ccc21 > 76.9 µM, COC(=O)[C@H](CCSC)NC(=O)NCc1ccc(S(N)(=O)=O)cc1 > 76.9 µM, O=C(CSc1nnc(-c2cccnc2)n1Cc1ccco1)c1ccc(Cl)cc1 > 76.9 µM, Cc1cc(CNC(=O)c2cc(Br)ccc2Cl)nn1C > 76.9 µM, O=c1c2ccccc2n(Cc2cccc(F)c2)c(=O)n1C1CCCC1 > 76.9 µM, COc1cccc(C(=O)CSc2nnc(CNS(=O)(=O)c3ccc(C)cc3)n2C)c1 > 76.9 µM, CCOc1cc(C(N)=O)cc(OCC)c1OCC > 76.9 µM, CC(NC(=O)c1nn(C)c(=O)c2ccccc12)c1ccc(F)cc1 (stereo unspecified) > 76.9 µM, Cc1ccc(Cl)cc1-n1c(=O)cc(N2CC(C)OC(C)C2)[nH]c1=O (stereo unspecified) > 76.9 µM, Cn1c(=O)c2c(nc(SCC(=O)N3c4ccccc4CCc4ccccc43)n2C)n(C)c1=O > 76.9 µM, CCOc1ccccc1/C=c1\sc2ncnn2c1=O > 76.9 µM, O=C(Nc1ccccc1-c1ccccc1)c1ccco1 > 76.9 µM, Cc1[nH]n(CCC#N)c(=O)c1CC(=O)N1CCN(c2ccccc2)CC1 > 76.9 µM, Cc1csc(NC(=O)CCn2c(=O)oc3ccccc32)n1 > 76.9 µM, CSc1nc(N2CCOCC2)c2c3c(sc2n1)CCC3 > 76.9 µM, CCOC(=O)C(CC)Sc1nc2c(c(=O)[nH]c(=O)n2C)n1CCc1ccccc1 (stereo unspecified) > 76.9 µM, COc1ccc2c(CC(=O)Nc3nnc(C4CC4)s3)coc2c1 > 76.9 µM, O=S(=O)(Nc1nccs1)c1ccc2c(c1)OCCO2 > 76.9 µM, COC(=O)c1ccc(CSc2nc3ccccc3c(=O)n2-c2ccc(OC)c(OC)c2)o1 > 76.9 µM, O=C(O)C1CC(=O)N(C2CCCCCC2)C1 (stereo unspecified) > 76.9 µM, COCCN(Cc1cc2ccccc2[nH]c1=O)C(=O)c1ccccc1OC > 76.9 µM, COc1cccc(C(=O)Nc2cnc(NC(=O)c3ccco3)cc2C)c1 > 76.9 µM, O=C(CN(C(=O)C1CSC(=O)C1)c1ccccc1F)NCc1ccc2c(c1)OCO2 (stereo unspecified) > 76.9 µM, c1ccc(-c2nc3ccccc3nc2N2CCOCC2)cc1 > 76.9 µM, O=C(c1cccnc1)N1CCN(S(=O)(=O)c2ccc(S(=O)(=O)N3CCCC3)cc2)CC1 > 76.9 µM, CC(C)(C)c1ccc(-c2conc2N)cc1 > 76.9 µM, CCOc1ccc(N(CC)S(=O)(=O)c2ccc3c(c2)oc(=O)n3C)cc1 > 76.9 µM, COc1cccc(-c2nnc(SCC(=O)N(C(C)C)C(C)C)o2)c1 > 76.9 µM, c1ccc(C(c2nnnn2C2CCCCC2)N2CCc3ccccc3C2)nc1 (stereo unspecified) > 76.9 µM, COc1cc(C(=O)NC2=NCCS2)ccc1OCc1c(C)noc1C, O=C(O)C(c1ccccc1)C1(O)CCCC1 (stereo unspecified) > 76.9 µM, CCC(=O)Nc1cc(-c2nn(C)c(=O)c3ccccc23)ccc1OC > 76.9 µM, CCOC(=O)c1csc(NC(=O)CSc2nnc(C3CC3)n2C)n1 > 76.9 µM, O=C1OCCC1Sc1nc2ccccc2s1 (stereo unspecified) > 76.9 µM, CC1(C)CC(=O)C2=C(C1)OC(/N=C/N1CCOCC1)=C(C#N)C2c1ccccc1 (stereo unspecified) > 76.9 µM, CCCc1nc2oc3c(NCCN4CCOCC4)ncnc3c2c2c1CCCC2 > 76.9 µM, O=C(NCCN1CCOCC1)c1ccncc1 > 76.9 µM, CC(C)(C)OC(=O)N1CCC[C@H]1c1nnc(SC/C=C/c2ccccc2)o1 > 76.9 µM, Cn1c(=O)[nH]c(=O)c2c1nc(N1CCCC1)n2CCCSc1nc2ccccc2o1 > 76.9 µM, O=C(c1ccco1)N1CCN(C(c2ccc(F)cc2)c2nnnn2Cc2cccs2)CC1 (stereo unspecified) > 76.9 µM, O=C(NC1CCCc2ccccc21)C1CCN(c2c3c(nc4ncnn24)CCC3)CC1 (stereo unspecified) > 76.9 µM
